The source of these data is paper PMC4336329 (PLoS ONE, 2015).

Hit rate of the full screen: of about 310,000 compounds, about 14,000 (4.5%) showed an effect of 50% or more. Effects have a minus sign here. The list shows a part of the results.
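Also: peak tail current of the secondary pulse compared with the same well before compound.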

The experiment deals with human ether-à-go-go-related gene (hERG) potassium channel (human, UniProt Q12809). The experiment can be described thus: primary screen, population patch clamp on CHO cells stably expressing hERG.
human ether-à-go-go-related gene (hERG) potassium channel, sequence (Q12809 whole entry, looked up): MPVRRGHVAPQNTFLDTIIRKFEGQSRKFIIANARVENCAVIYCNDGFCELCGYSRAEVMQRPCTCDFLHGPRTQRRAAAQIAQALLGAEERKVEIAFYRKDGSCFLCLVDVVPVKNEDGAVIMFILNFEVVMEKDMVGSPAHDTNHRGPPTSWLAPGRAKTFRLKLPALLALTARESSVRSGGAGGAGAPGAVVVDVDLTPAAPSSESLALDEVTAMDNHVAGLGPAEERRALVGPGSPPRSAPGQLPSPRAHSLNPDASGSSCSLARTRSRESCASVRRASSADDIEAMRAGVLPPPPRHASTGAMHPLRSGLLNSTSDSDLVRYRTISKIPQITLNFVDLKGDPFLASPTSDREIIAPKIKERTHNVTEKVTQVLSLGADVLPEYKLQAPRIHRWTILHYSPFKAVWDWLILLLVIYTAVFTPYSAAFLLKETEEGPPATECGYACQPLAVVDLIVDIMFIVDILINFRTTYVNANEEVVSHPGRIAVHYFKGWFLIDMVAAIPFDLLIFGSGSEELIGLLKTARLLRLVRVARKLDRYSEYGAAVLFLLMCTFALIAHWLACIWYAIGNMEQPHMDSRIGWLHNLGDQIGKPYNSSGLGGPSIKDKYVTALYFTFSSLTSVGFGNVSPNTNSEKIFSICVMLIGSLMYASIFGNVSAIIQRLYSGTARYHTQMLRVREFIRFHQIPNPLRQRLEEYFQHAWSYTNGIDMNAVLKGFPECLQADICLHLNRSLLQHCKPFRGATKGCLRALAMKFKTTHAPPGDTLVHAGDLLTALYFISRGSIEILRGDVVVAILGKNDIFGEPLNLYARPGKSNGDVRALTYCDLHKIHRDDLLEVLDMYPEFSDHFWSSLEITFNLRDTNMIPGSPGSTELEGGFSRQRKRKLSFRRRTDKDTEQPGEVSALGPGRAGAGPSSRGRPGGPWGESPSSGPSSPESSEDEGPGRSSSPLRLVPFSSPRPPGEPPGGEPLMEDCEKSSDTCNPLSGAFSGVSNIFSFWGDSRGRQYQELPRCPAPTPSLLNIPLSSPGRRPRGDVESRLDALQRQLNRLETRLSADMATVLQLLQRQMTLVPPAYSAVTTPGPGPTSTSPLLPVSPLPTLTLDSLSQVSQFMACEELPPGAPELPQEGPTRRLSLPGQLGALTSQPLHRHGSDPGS
With `Cc1nn(CC(=O)NCCC2=CCCCC2)c(C)c1[N+](=O)[O-]`, the “hERG current change (%, negative = inhibition) at 10uM” value came to 17%. Regarding `O=C(Cc1ccc(F)cc1)N1CCOCC1`, the “hERG current change (%, negative = inhibition) at 10uM” value was found to be 15.7%. Consider `N#Cc1c(-c2ccccc2)ccn(Cc2cccc(Cl)c2)c1=O`, for which the “hERG current change (%, negative = inhibition) at 10uM” value is on record as 8.43%. For the compound `CNC(=S)N(CCc1c(C)[nH]c2ccc(OC)cc12)Cc1ccco1`, the “hERG current change (%, negative = inhibition) at 10uM” value is on record as 2.5%. With `CC1(OC(=O)CCc2ccccc2)C(=O)C=C2C=C(c3ccc(C#N)cc3)N(CCc3ccccn3)C=C2C1=O` (centres unmarked), the “hERG current change (%, negative = inhibition) at 10uM” value was -51.8%.

On to `Cc1ccc(C=NCc2ccncc2)c(O)c1`, for which the “hERG current change (%, negative = inhibition) at 10uM” value amounted to 2.62%. Then `CC(C)[C@H](NS(=O)(=O)c1cccc(Cl)c1)C(=O)OCC(=O)NC(=O)CN1CCCC1=O`, with -3.05%; and `Cc1ccc(-n2nnnc2CNC(=O)C2CC(=O)N(c3ccccc3)C2)cc1C` (centres unmarked), with -1.96%; and `CC1CCCCN1Cc1ccc(Cl)nc1` (centres unmarked), with 9.09%. Then `CC(/C=N/NC(=O)c1cc(C(C)C)[nH]n1)=C\c1ccccc1`, with -6.84%; and `COc1ccc(C(C#N)N2N=C(c3ccccc3)CC2c2ccccc2)cc1OC` (centres unmarked), with 11.5%; and `Cc1onc(-c2ccccc2Cl)c1C(N)=O`, with 11.5%. Under `CN(Cc1ccccc1)C(=O)c1ccco1` stands -4.28%; under `Cn1ccs/c1=N\C(=O)Nc1ccccc1`, -0.0899%. Regarding `CC(=O)c1ccc(NC2OC(CO)C(O)C(O)C2O)cc1` (centres unmarked), the “hERG current change (%, negative = inhibition) at 10uM” value is -0.244%. Turning to `CC(C)(C)C(=O)OC/C(N)=N/OC(=O)c1ccc(Cl)c(Cl)c1`, the “hERG current change (%, negative = inhibition) at 10uM” value is reported as -12.6%. Under `Cc1ccc(C2Nc3ccccc3-c3nc4ccccc4n32)o1` (centres unmarked) stands -11.7%.

Turning to `Cc1ncc2c(n1)-c1cc(F)ccc1SC2`, the “hERG current change (%, negative = inhibition) at 10uM” value turned out to be 8.14%.

In the case of `COc1ccc(C)cc1NC(=O)CSc1nc2ccccc2nc1N1CCCCC1`, the “hERG current change (%, negative = inhibition) at 10uM” value was found to be 23.8%. Consider `Cc1cccc(N(CC(=O)NC2CCCC2)C(=O)CCC(=O)Nc2ccccn2)c1`, for which the “hERG current change (%, negative = inhibition) at 10uM” value is recorded as 15.4%. With `CCC(C)(C)n1nnnc1C(c1ccc(Cl)cc1)N1CCN(C)CC1.Cl` (centres unmarked), the “hERG current change (%, negative = inhibition) at 10uM” value is recorded as 2.83%. For `O=C1ON=C(c2ccccc2)/C1=C/c1ccc(-c2ccccc2[N+](=O)[O-])o1`, the “hERG current change (%, negative = inhibition) at 10uM” value came to 4.57%. Under `COC(C/C=C\[C@H](O)[C@@H](C)OCc1ccccc1)OC` stands 0.194%; under `CCC1(c2ccc(N)cc2)CCC(=O)NC1=O` (centres unmarked), 16.3%; under `Cl.O=S(=O)(NCC(c1ccco1)N1CCCCC1)c1ccccc1C(F)(F)F` (centres unmarked), -6.8%.

In the case of `Cc1c(C(=O)N2CC(C)OC(C)C2)oc2ccccc12` (centres unmarked), the “hERG current change (%, negative = inhibition) at 10uM” value is given as -4.81%.

For the compound `COc1ccc(NC(=O)C2CCCN(S(=O)(=O)c3cnc[nH]3)C2)cc1` (centres unmarked), the “hERG current change (%, negative = inhibition) at 10uM” value is listed as -1.19%. Then `CCOc1ccc(CN2CCN(S(=O)(=O)c3ccc(NC(C)=O)cc3)CC2)cc1.O=C(O)C(=O)O`, with -50.4%; and `Cc1cccn2c(=O)c3cc(C#N)c(=NC(=O)c4ccncc4)n(CCCOC(C)C)c3nc12`, with -85.1%. Then `CCCc1cc(=O)oc2c3c(cc(OCC(=O)N4CCC[C@H]4C(=O)O)c12)OC(C)(C)CC3`, with 8.03%; and `Cc1cc(C)c2oc(C(=O)Nc3ccc(S(=O)(=O)N4CCC(C)CC4)cc3)cc(=O)c2c1`, with 0.0534%.

Turning to `COC(=O)Cc1csc(Nc2c(C)n(C)n(-c3ccccc3)c2=O)n1`, the “hERG current change (%, negative = inhibition) at 10uM” value was determined as 10.3%.

On to `COc1ccc(-n2c(C)n[nH]c2=O)cc1OC`, for which the “hERG current change (%, negative = inhibition) at 10uM” value is recorded as 10.7%. Then `O=C(/C=C/c1ccc(Cl)cc1)NC(=S)Nc1ccc(CN2CCOCC2)cc1`, with 20.2%; and `COC(=O)[C@H](CCSC)NC(=O)N1CCN(c2cccc(C(F)(F)F)c2)CC1`, with -1.06%; and `CN(C)CCCN(C(=O)c1ccc(Br)s1)c1nc2cc3c(cc2s1)OCCO3.Cl`, with -33.9%. In the case of `CC(=O)N(C)c1ccc(N=C2C(=O)Nc3ccccc32)cc1`, the “hERG current change (%, negative = inhibition) at 10uM” value is 6.68%. For `Cc1cc(C)n(CC(=O)NNC(=O)c2cccc(C(F)(F)F)c2)n1`, the “hERG current change (%, negative = inhibition) at 10uM” value turned out to be 12.7%. In the case of `CCCCN(S(=O)(=O)c1ccccc1)S(=O)(=O)c1ccccc1`, the “hERG current change (%, negative = inhibition) at 10uM” value is listed as 11.7%. Consider `CC(C)(C)c1nnc(N/N=C/c2cc(Br)ccc2O)n(N)c1=O`, for which the “hERG current change (%, negative = inhibition) at 10uM” value is recorded as -18.4%. Then `COc1ccc(CC(=O)NCC2CCCN(Cc3cccc(C(F)(F)F)c3)C2)cc1` (centres unmarked), with -28%; and `O=C(N/N=C/c1ccc([N+](=O)[O-])s1)c1ccncc1`, with 16.8%; and `Cc1ccc(S(=O)(=O)N(CC(O)CN2CCCCC2)c2cccc([N+](=O)[O-])c2)cc1` (centres unmarked), with -78.8%. For `CCOC(=O)c1[nH]c(C(=O)O)c(OC(=O)CC)c1C`, the “hERG current change (%, negative = inhibition) at 10uM” value is recorded as 17.4%. For the compound `CCOC(=O)c1sc(NC(=O)CSc2nnnn2-c2ccccc2)c(C(=O)OCC)c1C`, the “hERG current change (%, negative = inhibition) at 10uM” value is recorded as 4.34%. Then `CN(CC(=O)Nc1ccc(F)c(F)c1F)C(=O)Cn1cnc2c1c(=O)n(C)c(=O)n2C`, with -2.29%; and `Cc1cccc(NC(=O)/C(=C\c2ccco2)NC(=O)c2cccs2)c1`, with -11.8%. On to `CC12CCC(C(=O)NNC(=O)c3ccc(F)cc3)(OC1=O)C2(C)C` (centres unmarked), for which the “hERG current change (%, negative = inhibition) at 10uM” value was determined as 24.6%. Then `Cc1ccc(NC(=O)CN2C(=O)N/C(=C/c3ccc(C)o3)C2=O)cc1`, with 11.9%; and `COc1cc(-c2nn3c(-c4cccnc4)nnc3s2)cc(OC)c1OC`, with -1.97%; and `COc1ccc2cc(C(=O)C3CCCN(C(=O)c4cc5nc(C)cc(C)n5n4)C3)ccc2c1` (centres unmarked), with -12.6%. Under `Cc1ccc(NC(=O)COc2ncnc3cc([N+](=O)[O-])ccc23)cc1S(=O)(=O)N1CCOCC1` stands -30.5%. Under `CCN(CC)S(=O)(=O)c1cccc(C(=O)OC2CCOC2=O)c1` (centres unmarked) stands 2.12%; under `O=C(Nc1ccc(F)cc1F)c1ccc(-n2cccn2)nc1`, 19.5%. With `Nc1cc(Cl)nc(N/N=C/c2c(O)ccc3ccccc23)n1`, the “hERG current change (%, negative = inhibition) at 10uM” value is given as 9.93%. Take `CC1=C(C(=O)N2CCOCC2)C(c2cccs2)NC(=O)N1` (centres unmarked): the “hERG current change (%, negative = inhibition) at 10uM” value amounted to 8.43%.
